Measurements taken from the supplement of paper PMC11417369.
± gives the standard deviation of the averaged measurements. This is one part of the list.

Each sequence was assayed on PfAP2-LT AP2 domain (GST-tagged) (assay: gcPBM binding intensity (ln(normalized median fluorescence intensity)); higher = stronger DNA binding).
Procedure, shortened: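 An Agilent 4 × 180k array carrying primer-extended double-stranded 36-bp intergenic genomic probes and negative controls received GST-tagged P. falciparum DNA-binding domains expressed in E. coli, about 25 μg on average, for 1 h. The binding buffer contained 1× PBS, 1% milk, 0.2 mg/ml BSA, 0.5% salmon testes DNA and 0.03% Triton X-100. Binding intensity is the top Masliner-normalised natural-log median intensity across replicate spots of either probe orientation, read after Alexa488 anti-GST antibody staining and a 488 nm scan.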

Row | Sequence | gcPBM binding intensity (ln)
1 | TTATTTCGAAGAAAATGTACATATATAAATATATAC [XGTACX_site3308] | 8.47 ± 0.42
2 | ATAATATTTTTTAATTGTACGTTCCATTTTTTTAAA [XGTACX_site1227] | 8.68 ± 0.43
3 | CAACAATTTCGTCATACACACATTCAGAATATAGAT [CACACA_site7166] | 9.06 ± 0.33
4 | ATAATAAAAATATATACATGCATTATTATATATATA [TGCATGCA_site799] | 8.63 ± 0.33
5 | ATATATAATTATTGAAGTACTTGTTCATAAAATGGT [XGTACX_site5656] | 8.69 ± 0.42
6 | TATATGAGCATAAAGACACACAAATAAAACCAAACA [CACACA_site3856] | 9.18 ± 0.45
7 | AAAATAAAATGAAAACGTACATGATAAATTTTAATT [XGTACX_site4199] | 8.91 ± 0.42
8 | ATATTATAAATATAATGTACGTTTTAATTTCATGTT [XGTACX_site3557] | 8.8 ± 0.46
9 | ATAACTAATATGAAATGTACCCATCAAAGTGTGCAT [XGTACX_site4463] | 8.85 ± 0.38
10 | TACTACACACATTCATGTACTTGATAAATTAATGAT [XGTACX_site6444] | 9.04 ± 0.42
11 | TAATTTGTTATTTATTGTACAAACATTATATGTTAA [XGTACX_site6637] | 8.51 ± 0.38
12 | AAAATTAAAATACGTACACACCTTATCTTTTTGGCT [CACACA_site4311] | 9.04 ± 0.52
13 | AGAACAATTCTGTGGTGTACCAAAAAAAATTTAATT [XGTACX_site8082] | 8.99 ± 0.33
14 | TAAATGAATTTTACTATACACACGTATACATTTGTA [CACACA_site1210] | 9.01 ± 0.42
15 | ATATTTAAATTTTGCACACGCATATGAAATTAGGAC [CACACA_site1035] | 9.01 ± 0.28
16 | AAAATAAATAAATATACACACCATATTTATATTTTT [CACACA_site7361] | 8.88 ± 0.37
17 | CTATGAATAGGAAAAAGTACTAAACCTTTATATATA [XGTACX_site5022] | 8.59 ± 0.42
18 | ATTTTGCCTGACCCATGTACATATTATTTTTTGCAT [XGTACX_site2258] | 9.33 ± 0.44
19 | CACATAAAAATTGTGTTGCACTTTTATTCTTATATC | 8.98 ± 0.5
20 | AGTAGAATATCCCCTACACACCCAAATAATTTACAA [CACACA_site8339] | 9.25 ± 0.38
21 | TAACTTAATATTAATGCACACAATTTATATATATAT [CACACA_site3903] | 8.9 ± 0.33
22 | TCAAATATTCATAAATGTACATTTATTTTTCTCCTT [XGTACX_site5827] | 8.79 ± 0.53
23 | AACTTACTTGGACATACACACATATATATATATATA [CACACA_site2978] | 9.78 ± 0.3

Row | Sequence | gcPBM binding intensity (ln)
24 | TTTATATATTTTAGGTGTACATAAATTTTTATATAT [XGTACX_site5597] | 8.6 ± 0.45
25 | GAAACATACATTTTTTGTCCGTAAGTATTATAATAA [XGTACX_site3273] | 8.65 ± 0.44
26 | ATACATCAAGGACACACACACACACCCACACCCACA [CACACA_site8013] | 10.4 ± 0.27
27 | AATGCAAAGGTGAAAGAACACACAAAAAAAAAAAAA [CACACA_site9333] | 9.03 ± 0.69
28 | GTGTTAAATTTTTGAACATGCAAGTTTTATTATTGA [TGCATGCA_site478] | 8.54 ± 0.48
29 | CATAGACACGAACATACACACGGACATACATACGGA [CACACA_site8101] | 9.5 ± 0.35
30 | TTTTGTTGAAAAAAAAAAAAAAAATTAAATTAAATT [GTGCAC_negctrl_site636] | 7.97 ± 0.52
31 | GTAACAAATTAATAGTGTACATATTTTAAAAAAATA [XGTACX_site7150] | 8.74 ± 0.45
32 | ATATGATAGTTTATATGTACATAAATAAATACATAC [XGTACX_site2917] | 8.93 ± 0.46
33 | ATTAATAATTATTATGGTACACATGTAACTACTCTC [XGTACX_site198] | 8.89 ± 0.55
34 | ATCTCTTACATATTCACACACATATAAATAACTACA [CACACA_site6816] | 9.15 ± 0.41
35 | AAAGAAAAAAAATAATGTACATATGTATTTGAGAAA [XGTACX_site3571] | 8.91 ± 0.6
36 | AAAAAAATAAAACACATACATATATGTATATATATA [GTGCAC_negctrl_site390] | 8.88 ± 0.44
37 | TTCTAAAATTATATAGTGCAATTATTTTATTTTTCT | 8.48 ± 0.54
38 | TAAATATATATATAAGTGCATTATATATATATATAA | 8.74 ± 0.34
39 | ATAAATCCCAAAACCTTGCAAGACAACGTTTGATCA [CACACA_negctrl_site1327] | 8.61 ± 0.37
40 | CTATATAAAAAAATTGCACACATAAATATATACATA [CACACA_site8325] | 9.01 ± 0.39
41 | TGTAGAAGAACCCATGCATGCAGTATGAAAAAAAAA [TGCATGCA_site907] | 9.05 ± 0.35
42 | AAAAAAAGAAAAAAACGTACATGAAAATTTTTTGTT [XGTACX_site5135] | 8.96 ± 0.42
43 | TTATGTATTTATTTATGTACTAATTGTATGCATATT [XGTACX_site6436] | 8.96 ± 0.4
44 | CATATACATAGACACACACACACATAAATAAATATA [CACACA_site6749] | 9.91 ± 0.33
45 | TTTCCTGGTCAAGGGGTTACGGTTACGTCCTCTTGC [CACACA_negctrl_site856] | 8.82 ± 0.4
